These are yes or no findings as the source states them, for the method shown. In cells and extracts the contact can be indirect. Some binding calls cover weakened binding; strength is not graded here.

Assay in all cases: co-IP
Assay [1] deals with HA-tagged Nipah virus C protein (NiV-C-HA) (Nipah virus) (UniProt Q997F1).
The target of assay [2] is NiV-C 159tr with C-terminal HA tag (Nipah virus) (UniProt Q997F1).
Assay [3] deals with HA-EGFP-C-CTD (fusion of EGFP and NiV-C-CTD) (Nipah virus) (UniProt Q997F1).

In the case of “FLAG-EGFP-Tsg101-CTD (from UniProt Q99816 303-390) (domain or fragment)”, in assay [1], the binding result was “binds”. Take FLAG-Tsg101 (from UniProt Q99816 1-390): in assay [1], the binding result is “binds”. On to “endogenous Tsg101 (from UniProt Q99816 1-390)”, for which the binding entry in assay [1] is on record as “binds”; in assay [2], “no binding”; in assay [3], “binds”.

Values taken from article PMC4874542.
